# The supplement of paper PMC5499739
# Over roughly 16,000 sequences, “Z-score” has its median near -0.37; the highest 2% begin near 3.1. The list shows a part of the results.
# Tested on: RBM10 RRM1-ZnF-RRM2 (GST-tagged construct)
# Experiment: RNAcompete 7-mer binding Z-score; higher = stronger binding preference
# Experimental: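 RNAcompete: 20 pmol GST-tagged RBM10 RNA-binding constructs were incubated with a designed RNA pool of about 241,000 sequences up to 41 nt (1.5 nmol) on glutathione beads for 30 min at 4 °C and washed. Bound RNAs were identified by microarray hybridisation. Each RNA 7-mer is scored by a one-sided Z-score of its enrichment, computed over probes that contain the 7-mer within longer pool sequences.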
row,Sequence,RNAcompete 7-mer binding Z-score
1,UUGUGCA,-0.449
2,CUAUUAG,-0.468
3,CGUCAUG,-0.355
4,CUAACUA,-0.599
5,AUCUUCA,-0.876
6,UUUUUGC,-0.795
7,CGUUCGC,-0.668
8,UGUGGAC,0.942
9,AGUUGCU,-0.486
10,CUAAUGC,-0.795
11,GUCUACG,-0.278
12,GUCGACU,-0.435
13,UGGUGCA,0.953
14,UAAACAA,-0.311
15,UCUCCCC,-0.701
16,UACAAGC,-0.38
17,ACAUUAC,-0.42
18,UUAACGC,-0.694
19,GAGUACC,0.0167
20,CCUUCGA,-1.05
21,GGGCGGU,2.58
22,UCCGAGG,0.428
23,AGGGAUA,4.38
24,CGUGGAA,1.29
25,GCUUUAC,-0.719

row,Sequence,RNAcompete 7-mer binding Z-score
1,CAAAGUU,-0.409
2,ACGUCAU,-0.581
3,CCGCAUU,-0.905
4,AGGUCUG,-0.256
5,UGCUGUC,-0.548
6,UGUUACG,-0.253
7,UAUACUU,-0.719
8,CCCAUGC,-0.785
9,UUCGUGC,-0.541
10,CUGUCGC,-0.781
11,AUGGCGG,2.49
12,GCUGUCC,-0.65
13,UUAACUG,-0.402
14,GGAUCAC,0.217
15,GAACCUG,-0.683
16,CGUGUUC,-0.781
17,CUACCCC,-0.639
18,GUUGGGC,2.33
19,CCCCCUG,-0.551
20,GAAGCUC,-0.562
21,GACAGUA,-0.0488
22,GAACUAU,-0.482
23,CAUCUCG,-0.73
24,AUUUCAA,-0.559
25,GAAAUGU,0.297

row,Sequence,RNAcompete 7-mer binding Z-score
1,GACCUUG,-0.887
2,UGGCUGU,-0.326
3,CUAAGCC,-0.967
4,UCUAGUU,-0.686
5,CUCCUAG,-0.646
6,CCCUUUG,-0.952
7,AAGCUUA,-0.544
8,AUGCUAA,-0.592
9,CAUACUU,-0.73
10,UCUUGGG,0.162
11,UUCGGGG,1.47
12,GAGUUAA,0.417
13,AGAAUGA,0.275
14,GCGCUAC,-0.0925
15,ACGACGA,-0.384
16,GGGAUGC,2.65
17,CCCCUCC,-0.362
18,CACUUGU,-0.825
19,GAACUUC,-0.668
20,AAUAGCC,-0.562
21,AAUCCUC,-0.766
22,CCAGUGG,1.12
23,UGUGCAG,0.264
24,CUACAUG,-0.599
25,GUCUCGU,-0.413

row,Sequence,RNAcompete 7-mer binding Z-score
1,CAGGUUA,1.16
2,UUGCAGU,-0.53
3,GAGAUAA,0.45
4,GCCCCGA,-0.584
5,CGAUAGC,-0.333
6,UUAAUGG,1.08
7,GGAACGU,1.27
8,CUACGUA,-0.406
9,AUUGUUA,-0.369
10,UUGCUAA,-0.541
11,CUGGCCG,-0.428
12,AUAUUGC,-0.566
13,GGGUUGG,4.05
14,CAUGGCG,0.785
15,CGAGUAC,-0.0415
16,AGGCCCG,-0.759
17,UUUGAGU,-0.213
18,CAUCAAC,-0.391
19,AAUUAGC,-0.278
20,AGUCGGU,0.745
21,GUCGAGC,0.348
22,ACAACAA,-0.184
23,GGCAUGA,0.876
24,GGAAUGC,1.43
25,AACAAUU,-0.559

row,Sequence,RNAcompete 7-mer binding Z-score
1,UGACGAG,0.345
2,UCCCCCG,-0.5
3,AAAGCCU,-0.734
4,GGACCGA,0.297
5,GAAUACC,-0.304
6,GUAGCCU,-0.635
7,CCGAAUA,-0.613
8,UUAUUUG,-0.763
9,UCCGAAG,-0.34
10,GAUUUCC,-0.657
11,UUUUUCG,-0.61
12,UGGGUAC,2.59
13,GCAGACU,-0.395
14,GCUGGAA,0.472
15,UACUGGC,-0.73
16,GUCCGUA,-0.471
17,GGAACUU,0.0058
18,AAUGCGU,-0.0161
19,UAUGAGG,1.54
20,GGAUGCC,0.552
21,AGAACCG,-0.661
22,UAGGUUA,1.01
23,AAGUGCU,-0.358
24,UGGAGUU,1.53
25,UACGUCA,-0.271

row,Sequence,RNAcompete 7-mer binding Z-score
1,GAAUUUA,-0.34
2,AUUACAG,0.21
3,ACUCACA,-0.686
4,CGUGACC,-0.595
5,UGAUUGG,1.29
6,GGGCACU,0.782
7,CGGCAGU,0.141
8,UGAAGUG,1.12
9,GUAUUCU,-0.657
10,UUACGCC,-0.715
11,GCGCGGU,1.03
12,GCAUCAG,0.301
13,GUCCCCC,-0.22
14,GACUAGC,-0.446
15,CGACCGC,-0.774
16,GGGAAGA,3.65
17,CCGGUAC,-0.333
18,UCUUGGC,-0.664
19,GGGGGGC,2
20,UCAUUUC,-0.846
21,GGUAGAU,1.38
22,CUGAAGA,-0.402
23,GCAUUCU,-0.777
24,GGGCUUC,0.432
25,GUUCUUG,-0.599

row,Sequence,RNAcompete 7-mer binding Z-score
1,AGUACCC,-0.628
2,UUUCUGA,-0.683
3,GCAUAUC,-0.468
4,AAGAAUA,-0.307
5,GUCAUAA,-0.384
6,CUAUUAC,-0.657
7,GAGUAUC,-0.238
8,ACCCUCG,-0.741
9,UACGAUC,-0.61
10,CUCCAGC,-0.726
11,AUGAGUC,-0.00512
12,AAUGUUU,-0.391
13,UCCCGAG,-0.533
14,ACAGUAA,0.0677
15,AGGCGCA,0.181
16,CAGGGCC,0.49
17,UUGAGUU,-0.176
18,CUAAACU,-0.588
19,GUAUUCA,-0.282
20,GACGACU,-0.592
21,CUCUUCU,-0.836
22,CGGUAAU,0.224
23,UCUGUAA,-0.664
24,UAAUUAA,-0.595
25,UACCCUU,-0.857

row,Sequence,RNAcompete 7-mer binding Z-score
1,GAGACUU,-0.533
2,CUCUAAC,-0.697
3,AUUGGCC,-0.289
4,CUCGGCC,-0.887
5,UGCUAGA,-0.333
6,CAACUAC,-0.628
7,ACGCAUA,-0.231
8,CGGCGUU,0.181
9,UUGUACA,-0.355
10,UGGGAGU,1.95
11,CGUUCGU,-0.377
12,CGUCGAA,-0.3
13,UUGAAGU,-0.253
14,ACGAACC,-0.49
15,UGACGUC,-0.595
16,GCAUGUA,-0.246
17,CCGAAAC,-0.686
18,CCAGAUC,-0.544
19,AGAUUCU,-0.686
20,CGCUCAU,-0.759
21,GGUUUGC,0.538
22,UUCGUAG,-0.256
23,AGAUCCC,-0.912
24,UAUAAGG,1.46
25,CCUUAAU,-0.817

row,Sequence,RNAcompete 7-mer binding Z-score
1,GACAAUA,0.0969
2,UAAAGCU,-0.726
3,CCGGGCG,0.803
4,CCCCGCC,-0.606
5,CCUGUUC,-0.857
6,AGCUUGA,-0.592
7,CACCCAA,-0.785
8,CGCUUCC,-0.737
9,AGCGUCC,-0.664
10,CCUCGAU,-0.814
11,GAUUACG,0.166
12,GGACUAG,0.705
13,CGGUUGG,1.91
14,GUGGAAA,2.46
15,AGCAGGU,1.74
16,GUUAAAC,-0.00148
17,CACACGG,0.377
18,AGUCGCU,-0.246
19,UGUCGCU,-0.362
20,AUCGCGU,-0.482
21,UGUUCAC,-0.832
22,CUAUCUA,-0.683
23,UACUCGA,-0.675
24,UAGACUA,-0.497
25,CUUGGCA,-0.46

row,Sequence,RNAcompete 7-mer binding Z-score
1,UUCCAGC,-0.715
2,CUCAAGU,-0.468
3,GAAAACG,0.752
4,CGUUCAG,-0.351
5,GCCCCCG,-0.271
6,AAUUCAA,-0.431
7,CUGGAGA,0.512
8,CUCUCAG,-0.683
9,ACACGGC,-0.0634
10,CGAAGAU,-0.428
11,UCAGUAC,-0.213
12,GCAAAGU,0.334
13,CACAAUU,-0.577
14,GAACACC,-0.5
15,AUGGUUC,0.264
16,CACGCAA,-0.395
17,AGACGUG,0.101
18,AUUACCA,-0.628
19,GGCCCAU,-0.715
20,CGUUUCG,-0.588
21,ACCGUGA,-0.435
22,GUAAGGC,2.12
23,GUUUCCU,-0.632
24,UUAGACG,-0.107
25,CGGGCGU,1.22

row,Sequence,RNAcompete 7-mer binding Z-score
1,GAAAGUG,1.69
2,GGCGACC,0.301
3,AUGACUA,-0.347
4,ACACGCC,-0.683
5,AUGAGCU,-0.0889
6,CACUUGA,-0.846
7,AGGCGAG,1.7
8,GCAUUAA,-0.391
9,GAAUCGG,1.71
10,ACACUCU,-0.908
11,AUUCCGC,-0.77
12,CCUCAUA,-0.832
13,CGAGUCU,-0.504
14,AAACGUU,-0.344
15,CGAAACA,-0.355
16,CCCUGUC,-0.803
17,ACCAUAC,-0.653
18,UUCUCAU,-0.883
19,AGGAGAC,1.15
20,GAGGGGU,3.64
21,ACGCAUC,-0.653
22,CGAACGG,1.41
23,GAUCAGG,2.02
24,UUGAGCC,-0.683
25,UGAUAUC,-0.479

row,Sequence,RNAcompete 7-mer binding Z-score
1,ACGAAUA,-0.238
2,ACCCUGA,-0.646
3,AUAUGAG,0.763
4,AACAACA,-0.027
5,AACACAA,-0.111
6,UGCCAGG,0.301
7,UUCAUUA,-0.439
8,UGGUAAC,1.03
9,CCGGCCU,-0.81
10,UUUAGCA,-0.49
11,GUCGCAC,-0.246
12,GGGUUUA,1.95
13,UUUAAUA,-0.573
14,UAGUCAG,0.119
15,AAUUUGC,-0.814
16,UGAUAGG,2.37
17,GGGUUCC,0.811
18,CGUGUGG,1.22
19,CGAGUUA,-0.0306
20,CACGUUU,-0.952
21,ACGCGAG,-0.0415
22,ACCUCCG,-0.737
23,GCUGUGC,-0.267
24,AGGUACA,1.11
25,UUCCUGC,-0.81

row,Sequence,RNAcompete 7-mer binding Z-score
1,CACAGAC,-0.0962
2,AUGACAC,-0.224
3,UAUUUAC,-0.872
4,CAUAGAU,-0.278
5,UUCGCAU,-0.73
6,GCUCCAG,-0.588
7,CAACAAA,-0.275
8,CCCGGCC,-0.799
9,CAGAUGC,-0.267
10,GCCACUA,-0.686
11,AUCGUCG,-0.293
12,AAUCAUA,-0.187
13,UUGUAGG,1.52
14,AUGAAAC,-0.34
15,ACCUCAC,-0.748
16,AAUUGGA,1.41
17,ACGGUGA,1.28
18,UUAUUCA,-0.592
19,GUACACU,-0.286
20,UGGGCAG,2.27
21,GUACUAA,-0.162
22,AUCGACA,-0.195
23,AGUAUGU,0.0313
24,UACCCAU,-0.901
25,CUUGGAG,0.377

row,Sequence,RNAcompete 7-mer binding Z-score
1,CGCAUAC,-0.577
2,CCUGUCU,-0.945
3,ACGUAUU,-0.515
4,UCAUCGU,-0.504
5,UCGUGCA,-0.61
6,CUAGAUG,-0.296
7,CAUUUCG,-0.85
8,CGCGCUG,-0.333
9,CGAGCGG,3.33
10,GGGUCGA,2.01
11,ACAUUCG,-0.541
12,UCAUUGA,-0.162
13,GAUGCGG,1.7
14,UAUAGAA,-0.027
15,AUCAAAG,-0.0452
16,UACGCGC,-0.446
17,GAACAAC,-0.18
18,CCUAGAU,-0.752
19,UGGGGGA,3.33
20,CUGCGAU,-0.923
21,GGUACAC,0.836
22,ACCUAAU,-0.879
23,ACGUGCG,0.177
24,GCUUCGC,-0.664
25,UCCAAUC,-0.617

row,Sequence,RNAcompete 7-mer binding Z-score
1,UACUACC,-0.861
2,AAUGGGC,2.92
3,UCAUUUG,-0.785
4,GUUGGCC,-0.00148
5,GCCCCUC,-0.504
6,CCAGAAG,-0.0707
7,UCUGGAA,-0.358
8,CGGACUC,-0.446
9,AGAACCA,-0.708
10,GAACUAA,-0.267
11,GUUUGGG,3.06
12,CCCCAGA,-0.53
13,GAAUUGU,-0.0707
14,AGGGAUC,1.32
15,GCUUGUG,-0.479
16,AGCCCGG,-0.435
17,CUCCGAA,-0.755
